Test results: paper PMC10726135
This is one part of the list. At the low end of the ranking the order means little. The protein was read in a cell extract, so binding may be indirect.

target: T1, HNF4alpha8 (COS-7 nuclear extract) (UniProt P41235-5); assay: protein-binding microarray; conditions: COS-7 nuclear extract on double-stranded Agilent 4x180k PBM; binding buffer, salt, pH and temperature not given; high values mean tight binding; double strand, one strand shown; sequences stand for … in …GCCTAGGGAGATTAGAGTATCGGTCGA
T1 sequence: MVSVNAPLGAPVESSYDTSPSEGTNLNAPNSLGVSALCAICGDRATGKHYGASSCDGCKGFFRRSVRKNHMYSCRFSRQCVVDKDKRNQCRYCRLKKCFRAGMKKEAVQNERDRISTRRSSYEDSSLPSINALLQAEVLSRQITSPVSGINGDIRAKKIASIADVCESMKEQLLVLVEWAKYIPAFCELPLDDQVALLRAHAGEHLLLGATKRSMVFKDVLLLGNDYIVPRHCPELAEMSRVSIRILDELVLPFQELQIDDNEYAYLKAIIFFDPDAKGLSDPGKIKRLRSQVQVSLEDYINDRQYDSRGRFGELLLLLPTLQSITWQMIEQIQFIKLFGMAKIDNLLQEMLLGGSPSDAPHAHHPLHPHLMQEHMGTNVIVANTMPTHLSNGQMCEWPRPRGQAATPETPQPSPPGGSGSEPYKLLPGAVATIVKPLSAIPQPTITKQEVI

Sequence	binding signal (log2 normalized intensity)
ACTGTTCAGTTCCTATTTCAACATCCTCTC	-0.717
CAGGAGAAGCAGAACAGGTATTTCAAGGTT	-0.868
AATTGTGTCACTCCCCAGGAATGTGCTCCC	2.54
GCAGTGAGTAACCTTGAGGAACTGAGTAAG	-1.43
TGGTATGCTTAAGTGGCTCACCCAAGTCAC	-1.28
TACTGACCAAATGGGAACATTCCTCAGGGA	-1.31
CAGTCTAAAGTCTGATCCCAATTTATCTTT	2.01
CATCCTCAGGTAAAGATCAACCATCAAGAT	-1.32
CCAGTGGGGGGAAGCTCTGTCACTTCTGGT	-0.841
AAGCATTGCTTGAGTCACTTGGTTTTCACA	-0.851
TCATTGATGAGTGACCTTTGACCTCAGAGA	10.5
CCCTTGACAATTCCTATTCATTCCCTAAGA	-0.967
GAAGTGCTGACCTTTGGTCTAAACCTACTT	5.99
GGTTCACTCTATGTTAGGCTGGAAAACTGG	0.592
ATCAGACACAGAGATAAGGAGGTAACCTTT	3.93
TATGGGATGATCAGTAAGGAGAGGGGGCGG	-1.3
TAAAGGGCAGCAAGTATTCAAGAAAGGGGC	-1.32
CTGTGTTCTCTCAACCTCTCTGGGGGATGG	0.317
TCTCTGGCTTGATCCCTGAACTTTGCTCCC	8.76
TTCTCTCTTGGACTCTTGGACTCCCTGAAG	5.73
TAACTGTGGGTTCTAGGTAATCACCCTCTC	0.507
GTTTGGTGTTTAATTTTCAACCTCTTTCTC	1.49
GATTAGAGACCTCTAGACTCCAGCTAAAGC	-1.41
CATTCCAACCCTGCCATAAACTTCTCCCCC	4.21
GAGCACAAATAACATTCCTAACATTCTTCC	-1.32

Sequence	binding signal (log2 normalized intensity)
TCCGGCAGCGGCCGGAAAAAGTGAGGAGCA	-1.04
GGCTGAGTCAGTTTAGTCCTGGATGACCCA	3.33
CATGTGGTCCTAAGACTAACCTTTGACCAT	8.37
CATGACCTTTGGACTGTGACCCCACCTCTC	7.69
GGGGACCAGTGGGGGGAAGCTCTGTCACTT	-1.35
CCCAAGCGAATATGTCAGGCTCAGGGACCC	-1.2
GGAAGATGCCTTTTTAGTGCAAGCAAAATT	-0.831
GGACTTTGGCCTTACTTGGCCTGTTTGCTG	5.89
AAAGTCCATATTCTTTGTTTGGATGCCAAA	2.25
GGTGGAGGCAGCAGCTCCAATTAGGAGATC	-1.4
GCCCAAGGAGACAGGCTTTGAGCATCGCTG	-1.41
TGCTCCGGTTCCCAATAAGTTCCTCATTTT	-0.238
GTGCCATTGAGATGGTAACCACACCAAGGG	-1.34
ATTGAGGCTTAGCAGCTTGAGGCTCCGATA	-1.33
GAACTTTGACCACCTACTGTTTGTGCAGAG	5.12
AGATTTATCTCTCCAAGGTACTGTGAACTC	2.73
ATTTTACAGATGGGGCTGTTTCTTTGTGTG	1.49
TGACCATCTGCGAAATGGGGATAAACACCC	-1.13
CCCACTCTCCTCTGCCACTGTATCAGGGAG	-1.31
CTGGCTTTCATTCCACTGACTTGCAACCTT	1.09
GCTAGTAAGGAGCTGAGTCATAGTGGACTT	4.03
CATGACTTACTTGGCATCATCAAACAAGAT	-1.16
CTCTAGAGTGGTTGCCTGTGAGTCAGGTAC	0.816
GAAGATGCCACGCAATGCATAGCAGAAACA	-1.34
CTATGAATGAAGTCTTTTCCATCGCCCTTA	1.55

Sequence	binding signal (log2 normalized intensity)
GCTTCCTGGAGAAATGTCCGCCTGGTGTTT	1.1
CAGGCTCATTCTAACCCAAATGCAAATACC	0.831
GATACGGCCTGGACTCCAAGCCCCAAAAAC	1.98
GAGGTGTTCTCTGGGGTTAGCCAAACAAAT	0.13
AAGTGCCCGGATAAACTTCCAGCCATTTTG	-1.13
AAATGAGTTTCATTAGACAGAAACCAAGCT	-1.46
TGGCCATGAAAGTATCCAGCTCCTCTTCAC	-1.21
CCCGGCAGATCAGGGTCAGGCTGTGGTACG	1.4
CTCCAGAAATACAGAAGCTGCTCTAAGAAT	-1.1
TACTAATTTTGTTTCCTAGTTCAAACAGGC	-0.105
GGACTTCGAATGGTATGCTAGAGTACTTGG	1.51
ATTCAATGTTTGGGAGCCTTGCACACTCGC	-1.23
CCTCCAACTATTGCTCAGCAGGGAGATGGA	-1.34
GAGTTCAGATCACAAAGGAGCTTGTAAGCC	-1.37
TTCAGGAAGGCCTGTTAAAAACACGAGCTA	-1.35
AGCTGTTACTCATTCCCAGGTCGGGCCGGA	0.376
TTTATTTGAAGAAATGGTGGACTTTGTAGC	6.52
CCAGTTCACTCAGTCCACATGGTGTCTTTT	1.35
TCCTTGTTTTTTCATAGGCCTTTATTTGCT	0.625
TGGTCATGGAGGGAACAAAACTTCACCTCC	-1.27
TTTTCCCCCTTTGAAGTCTGCCCTCCATGT	4.83
TTGAACACCACAAGTTTGAACTGCACAGGC	0.14
TCTGCTGTGCCGGGTATGTGGGGCGTGTGT	2.19
